Source: the supplement of paper PMC11417369
The list shows a part of the results.

system: PfAP2-HC AP2 domain (GST-tagged); experiment: gcPBM binding intensity (ln(normalized median fluorescence intensity)); higher = stronger DNA binding
Procedure, shortened: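 Alexa488 anti-GST antibody, scanned at 488 nm, detected GST-tagged P. falciparum DNA-binding domains that had been expressed in E. coli and incubated for 1 h on an Agilent 4 × 180k array. The array carried primer-extended double-stranded 36-bp intergenic genomic probes and negative controls. Binding intensity is the highest Masliner-normalised natural-log median intensity across replicate spots of either orientation of each probe.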

| Sequence | gcPBM binding intensity (ln) |
| --- | --- |
| ATATTTTTCCAACATCGTACATTATGAGTCAAAATT [XGTACX_site993] | 9.48 |
| AATGTAAAACTAATATGTACATATCTCTAAAGAAAT [XGTACX_site8429] | 9.71 |
| CGTACTAACATAAAGACACACACCACATATAATAAA [CACACA_site3603] | 10.3 |
| ATTGTCTTCCTTCTGGTGCGATGTATAGGTAAAGAT | 9.57 |
| AACTCATCTTATAATTGTACATATTTATAAAAAGTA [XGTACX_site6522] | 9.45 |
| TGTAGAAATGGGTGCACACACATATATAATATATAT [CACACA_site2507] | 10.1 |
| AAAAAAAAAAAAAAAAAAAAAAAAAAAAAATATATA [GTGCAC_negctrl_site6] | 9.39 |
| TTAGGGATGCTGAAATGTACACATTTAAATTATATA [XGTACX_site3000] | 9.67 |
| GTATATATATATATATATATATATATATATATATAT [CACACA_negctrl_site609] | 9.41 |
| TCTCCATCTTATGAGACATGCACTTTTTATTTAATA [TGCATGCA_site121] | 9.67 |
| TGTGTATACTTGTGTATACCAAATTAAAGACGCTTT [CACACA_negctrl_site1359] | 9.56 |
| AAAAAATAAAAAAGGTGGTCATGTCACAAATACTTT [XGTACX_site7454] | 9.82 |
| TAAAAGTGATATGTTCGTACGTATTTATATGTAATA [XGTACX_site211] | 9.62 |
| TTTTTCTTTTTTTGGGGTACAGGGAAATCTATATTT [XGTACX_site7025] | 9.67 |
| TCTTAATTTTTGAAGGTACACACTAATATATTAAAT [CACACA_site1191] | 9.53 |
| TTGTGTAAATGTTAAGTGCATTTGGTAAAATATAAA [GTGCAC_site9699] | 9.62 |
| AAAAAAAAAAAAAAAACACACATACCCATATATTTT [CACACA_site6013] | 9.85 |
| ATGATATGCAATTTAGTGCATAACAAAATTGGTATA | 9.66 |
| GGATATATTTTATGTACACACATATATAACGGATAT [CACACA_site4847] | 9.85 |
| TTTTAAAAAAATAAATAAATAGAAAAAAAAAATAAA [TGCATGCA_negctrl_site579] | 9.53 |
| TATTATGACTTAAGTTGTACTGTTGAAAGAAGAAAA [XGTACX_site2985] | 9.51 |
| ATAATCCTTAAACACACACACACACTAATAAATAAA [CACACA_site8052] | 10.8 |
| ATAAAAATTAAAGAATGTACACATATAATATATGTA [XGTACX_site8735] | 9.63 |

| Sequence | gcPBM binding intensity (ln) |
| --- | --- |
| AAAAGTTATAGACACACACACATATAAATATAGATT [CACACA_site6617] | 10.4 |
| TTGTTTCCTTAATATTCACACACATATATATAATAT [CACACA_site8553] | 10.1 |
| TATAAATGTATACAAGTGCATATTATTCACACATAA | 9.72 |
| GAAATTATTATATAAACACACATTTATTTTATTTTA [CACACA_site1957] | 9.67 |
| GTATTATACCATAATGCATGTTAACTTCAAAAGAAA [TGCATGCA_site839] | 9.54 |
| CGTATAAATAAATACACACACATATAAATATGTAAA [CACACA_site6236] | 9.99 |
| TAATATATTGTAGATGCATGCATTAACTATTACAAA [TGCATGCA_site190] | 9.75 |
| TATCAATGGAAAATATATATTTGTATATATGTAATA [XGTACX_negctrl_site257] | 9.54 |
| TATAAAAATAATATTACACACATGTAAAATGTCGGT [CACACA_site3264] | 9.91 |
| ACACATGACATCCGTTGTACAATCATCATAAAAATG [XGTACX_site5397] | 9.8 |
| AGCATTTATGAAAAATGTACACACATCAAATGCTTA [XGTACX_site8749] | 9.63 |
| AAGCTACACATAGATTATTATTAATTTAATGTATAT [CACACA_negctrl_site548] | 9.53 |
| TACGTGAAATTATATACACACATAAATATGTCTGTA [CACACA_site3122] | 9.85 |
| ACAAGCTTTCATAAGGTGCAATGATTTAACAAAAAA [GTGCAC_site9726] | 9.48 |
| AATTATTAGCGTGGTGTGCACAAAATTATGGACACA | 10.1 |
| TTTCCCTTAAATTAATGTACATAAATTGAAAATACC [XGTACX_site1602] | 9.34 |
| TATATATTATACACGTGTACACATTATAACAATATA [XGTACX_site7799] | 9.78 |
| TAAAATTTTTTTGTTTGTACATATATATATATAATA [XGTACX_site5609] | 9.53 |
| AAAAAAAAAAAACACACACACAAAAAAAAATATATA [CACACA_site1105] | 11.3 |
| AAAAAAATAAATAAATACATACATATATATATGTAT [GTGCAC_negctrl_site510] | 9.82 |
| TTGCCCCAGGAGTTCACACACATAATAGATTGTCAC [CACACA_site726] | 10.1 |
| AGCAACCCCCTAGCTACACACATATAGATATATATA [CACACA_site951] | 9.91 |
